Reference: PMC9911399, “Two distinct binding modes provide the RNA-binding protein RbFox with extraordinary sequence specificity”
Changes are numbered by the printed parent chain; changes in the protein carry UniProt numbers. The list shows a part of the results.

T1: RBFOX1 RRM (Homo sapiens, UniProt Q9NWB1 109-208)
T1 sequence: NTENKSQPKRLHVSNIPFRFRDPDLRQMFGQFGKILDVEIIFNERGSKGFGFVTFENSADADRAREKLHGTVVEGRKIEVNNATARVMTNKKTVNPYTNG

B1: AUACCGA (DNA:RNA)
RNA: GGGAGACCGGAAUUCAGAUUGUCCAUACCGAUUAAAUCCCGUCGUAGCCACCA
DNA 1: CAATCTGAATTCCGGTCTCCC
DNA 2: TGGTGGCTACGACGGGATT
B2: AAAUCGU (DNA:RNA)
RNA: B1 RNA with U26A, C28U, A31U
DNA 1: CAATCTGAATTCCGGTCTCCC
DNA 2: TGGTGGCTACGACGGGATT
B3: ACUCUGC (DNA:RNA)
RNA: B1 RNA with U26C, A27U, C29U, A31C
DNA 1: CAATCTGAATTCCGGTCTCCC
DNA 2: TGGTGGCTACGACGGGATT
B4: CACAAUU (DNA:RNA)
RNA: GGGAGACCGGAAUUCAGAUUGUCCCACAAUUUUAAAUCCCGUCGUAGCCACCA
DNA 1: CAATCTGAATTCCGGTCTCCC
DNA 2: TGGTGGCTACGACGGGATT
B5: UAUCUUU (DNA:RNA)
RNA: B4 RNA with C25U, C27U, A28C, A29U
DNA 1: CAATCTGAATTCCGGTCTCCC
DNA 2: TGGTGGCTACGACGGGATT
B6: CACAUUA (DNA:RNA)
RNA: B4 RNA with A29U, U31A
DNA 1: CAATCTGAATTCCGGTCTCCC
DNA 2: TGGTGGCTACGACGGGATT
B7: GGUCAUA (DNA:RNA)
RNA: B1 RNA with A25G, U26G, A27U, C29A, G30U
DNA 1: CAATCTGAATTCCGGTCTCCC
DNA 2: TGGTGGCTACGACGGGATT
B8: GGUAUGC (DNA:RNA)
RNA: B1 RNA with A25G, U26G, A27U, C28A, C29U, A31C
DNA 1: CAATCTGAATTCCGGTCTCCC
DNA 2: TGGTGGCTACGACGGGATT
B9: UGAGGAU (DNA:RNA)
RNA: B1 RNA with A25U, U26G, C28G, C29G, G30A, A31U
DNA 1: CAATCTGAATTCCGGTCTCCC
DNA 2: TGGTGGCTACGACGGGATT

These binders were tested against T1, RBFOX1 RRM (assay: EMSA; HiTS-Eq, 1 nM pool, 10 min; buffer printed only for the single-RNA assays: 10 mM Tris pH 7.5, 150 mM NaCl, 3.4 mM EDTA, 0.001% NP-40, 30 C). Settings: tags: His6 N-terminal (pET28a); label: 5' 32P.
In short: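 Purified RbFox RRM, wild type or mutant, was incubated for 10 min in 50 µL with 1 nM of a 5′-radiolabelled RNA pool carrying 7 randomized nucleotides, whose flanks were annealed to DNA oligonucleotides, over a series of increasing protein concentrations. Unbound RNA was resolved on 8% native PAGE, cut out, reverse-transcribed, barcoded by PCR and sequenced on an Illumina HiSeq 2500. Relative association constants were derived from changes in read counts for each RNA species versus the control reaction and normalised to the cognate motif.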

Question: How did the binding signal turn out when B1 was run?
Answer: Its binding signal is 0.00279 KA relative to UGCAUGU.

Question: For B2, which binding signal is on record?
Answer: Its binding signal is 0.00255 KA relative to UGCAUGU.

Question: B3 was tested. Which binding signal did it give?
Answer: Its binding signal is 0.00588 KA relative to UGCAUGU.

Question: How did the binding signal turn out when B4 was run?
Answer: Its binding signal is 0.000253 KA relative to UGCAUGU.

Question: Which binding signal does the source give for B5 here?
Answer: Its binding signal is 0.00872 KA relative to UGCAUGU.

Question: B6 was tested. Which binding signal did it give?
Answer: Its binding signal is 0.00115 KA relative to UGCAUGU.

Question: Which binding signal does the source give for B7 here?
Answer: Its binding signal is 0.00307 KA relative to UGCAUGU.

Question: B8 was tested. Which binding signal did it give?
Answer: The binding signal was 0.0153 KA relative to UGCAUGU.

Question: With B9 as the binder, how does the binding signal read?
Answer: Its binding signal is 0.00655 KA relative to UGCAUGU.
